Laboratory results from a collection of fitness landscapes (doi:10.1126/science.1257360).
The other results are listed elsewhere or left out.

B1: PhoQ; a variant is named by its letters at X, in order, P23837 (parent)
chain: MKKLLRLFFPLSLRVRFLLATAAVVLVLSLAYGMVALIGYSVSFDKTTFRLLRGESNLFYTLAKWENNKLHVELPENIDKQSPTMTLIYDENGQLLWAQRDVPWLMKMIQPDWLKSNGFHEIEADVNDTSLLLSGDHSIQQQLQEVREDDDDAEMTHSVAVNVYPATSRMPKLTIVVVDTIPVELKSSYMVWSWFIYVLSANLLLVIPLLWVAAWWSLRPIEALAKEVRELEEHNRELLNPATTRELTSLVRNLNRLLKSERERYDKYRTTLTDLTHSLKTPLXXLQXXLRSLRSEKMSVSDAEPVMLEQISRISQQIGYYLHRASMRGGTLLSRELHPVAPLLDNLTSALNKVYQRKGVNISLDISPEISFVGEQNDFVEVMGNVLDNACKYCLEFVEISARQTDEHLYIVVEDDGPGIPLSKREVIFDRGQRVDTLRPGQGVGLAVAREITEQYEGKIVAGESMLGGARMEVIFGRQHSAPKDE

Variants of: B1
Assay: enrichment ratio after two sorts for PhoP signalling (ratio (wild type AVST 3.29)); higher = more functional
Details: with PhoP (E. coli)

Variant | enrichment ratio
SGYP | ≤ 0.25
YNCN | ≤ 0.25
SMPW | ≤ 0.25
TTVD | ≤ 0.25
ITIL | ≤ 0.25
ADGS | ≤ 0.25
TFGP | ≤ 0.25
GEPM | ≤ 0.25
SMTT | 3.61
PFTK | ≤ 0.25
QNWG | ≤ 0.25
QTPQ | ≤ 0.25
YCAF | ≤ 0.25
AMPP | ≤ 0.25
KHQG | ≤ 0.25
SCGN | 7.28
KDSE | ≤ 0.25
ELYF | ≤ 0.25
QYHR | ≤ 0.25
RWWS | ≤ 0.25
WHMH | ≤ 0.25
LGRT | ≤ 0.25
MQKD | ≤ 0.25
NAKV | ≤ 0.25
LSKC | ≤ 0.25

Variant | enrichment ratio
SYFG | ≤ 0.25
EPFP | ≤ 0.25
RKML | ≤ 0.25
LDKK | ≤ 0.25
WSGM | ≤ 0.25
LMRY | ≤ 0.25
RLSC | ≤ 0.25
RCYW | ≤ 0.25
MTGF | 2.95
KATL | ≤ 0.25
TYYV | ≤ 0.25
YMAC | ≤ 0.25
YWNE | ≤ 0.25
MRVQ | ≤ 0.25
ACHW | ≤ 0.25
DQIP | ≤ 0.25
FGCK | ≤ 0.25
LAEE | ≤ 0.25
SWWN | ≤ 0.25
LRFQ | ≤ 0.25
IQWA | ≤ 0.25
PRGE | ≤ 0.25
THVT | ≤ 0.25
GFLR | ≤ 0.25
YPKM | ≤ 0.25

Variant | enrichment ratio
APTY | ≤ 0.25
PCPV | ≤ 0.25
EIHF | ≤ 0.25
DLKI | ≤ 0.25
AVNG | ≤ 0.25
VMFK | ≤ 0.25
IAAI | ≤ 0.25
WFSS | ≤ 0.25
WMGH | ≤ 0.25
SKSD | ≤ 0.25
HVFG | ≤ 0.25
FPWT | ≤ 0.25
ANMQ | 7.41
FCDH | ≤ 0.25
MYHN | ≤ 0.25
TNRQ | ≤ 0.25
GNLD | ≤ 0.25
MDEK | ≤ 0.25
IIMI | ≤ 0.25
PLSA | ≤ 0.25
IPNQ | ≤ 0.25
DPCH | ≤ 0.25
GPVR | ≤ 0.25
LFKA | ≤ 0.25
KYKS | ≤ 0.25

Variant | enrichment ratio
DGRS | ≤ 0.25
TMEE | ≤ 0.25
KEGM | ≤ 0.25
FGCT | ≤ 0.25
FVMR | ≤ 0.25
IDAL | ≤ 0.25
HMME | ≤ 0.25
AMQP | ≤ 0.25
LIDE | ≤ 0.25
GSSC | 3.86
VENI | ≤ 0.25
SCPF | ≤ 0.25
FTYK | ≤ 0.25
SVLD | ≤ 0.25
KYLV | ≤ 0.25
VIIL | ≤ 0.25
TQQL | 11.6
NPLL | ≤ 0.25
AEYP | ≤ 0.25
PVML | ≤ 0.25
STMR | 0.517
EKPS | ≤ 0.25
LCRV | ≤ 0.25
LEGT | ≤ 0.25
FSQP | ≤ 0.25

Variant | enrichment ratio
PWVC | ≤ 0.25
KHVG | ≤ 0.25
PNKC | ≤ 0.25
VCWW | ≤ 0.25
SPMY | ≤ 0.25
QCWG | 1.24
ELDP | ≤ 0.25
KCRF | ≤ 0.25
RDYI | ≤ 0.25
YVAL | 0.298
NCVF | ≤ 0.25
VEGL | ≤ 0.25
QILN | ≤ 0.25
FYWD | ≤ 0.25
MMAH | 7.42
MAAP | ≤ 0.25
GDKS | ≤ 0.25
YSCK | ≤ 0.25
VDFD | ≤ 0.25
AMIW | ≤ 0.25
KHFA | ≤ 0.25
VEEH | ≤ 0.25
HAGA | ≤ 0.25
PTHC | ≤ 0.25
YTEN | ≤ 0.25

Variant | enrichment ratio
AAGH | ≤ 0.25
WYLV | ≤ 0.25
WKRF | ≤ 0.25
PKWN | ≤ 0.25
QDAQ | ≤ 0.25
EHMG | ≤ 0.25
GQGV | ≤ 0.25
VHGE | ≤ 0.25
TCGY | 20.3
YPNK | ≤ 0.25
ATPR | ≤ 0.25
TDML | 5.55
YYYQ | ≤ 0.25
HNQV | ≤ 0.25
MWFP | ≤ 0.25
TEDN | ≤ 0.25
TNFM | ≤ 0.25
KKNA | ≤ 0.25
VRKN | ≤ 0.25
PLCD | ≤ 0.25
GQSM | 20.5
YRLH | ≤ 0.25
MHMM | ≤ 0.25
QRPK | ≤ 0.25
NPQR | ≤ 0.25

Variant | enrichment ratio
SYVK | ≤ 0.25
HGGP | ≤ 0.25
MYDM | ≤ 0.25
WKFC | ≤ 0.25
DGWR | ≤ 0.25
TVAG | 17.8
NMMM | ≤ 0.25
GPAM | ≤ 0.25
LWDL | ≤ 0.25
AGSK | 0.857
TYPI | ≤ 0.25
EFAR | ≤ 0.25
EHGL | ≤ 0.25
PWFL | ≤ 0.25
YQCM | 3.42
LAIL | ≤ 0.25
PNKD | ≤ 0.25
HGHR | ≤ 0.25
MHLA | ≤ 0.25
GKMA | ≤ 0.25
QVSM | 6.39
VTAN | ≤ 0.25
DQVC | ≤ 0.25
RRMF | ≤ 0.25
DAIK | ≤ 0.25

Variant | enrichment ratio
YGFF | ≤ 0.25
HTIK | ≤ 0.25
FCSM | 0.747
PWMV | ≤ 0.25
EKNA | ≤ 0.25
STPM | 15.9
QHKT | ≤ 0.25
PICC | ≤ 0.25
YWCW | ≤ 0.25
FVND | ≤ 0.25
PWHN | ≤ 0.25
HVSY | ≤ 0.25
LVIR | ≤ 0.25
RIPR | ≤ 0.25
ICVQ | ≤ 0.25
GFHQ | ≤ 0.25
YWAS | ≤ 0.25
LYST | ≤ 0.25
INND | ≤ 0.25
MRIG | ≤ 0.25
